Consider 1 compound from PubChem BioAssay AID1462 (Emory University Molecular Libraries Screening Center, 2008).

Not every entry of the source has a single result; some have several. The list is limited to them. The source may hold further records. Values given together are repeated measurements (runs, samples, wells, individuals or studies). A tag in brackets gives the origin of a value. Letters count within one entry.

In this assay the target is Protein GrpE (Escherichia coli (strain K12)) (UniProt P09372). The assay is described as follows: inhibition of DnaK/DnaJ/GrpE luciferase refolding – biochemical, luminescence, E. coli K12, dose response (AID 1462). As to conditions: DnaK/DnaJ/GrpE denatured luciferase refolding.
UniProt P09372, sequence (P09372 whole entry, looked up): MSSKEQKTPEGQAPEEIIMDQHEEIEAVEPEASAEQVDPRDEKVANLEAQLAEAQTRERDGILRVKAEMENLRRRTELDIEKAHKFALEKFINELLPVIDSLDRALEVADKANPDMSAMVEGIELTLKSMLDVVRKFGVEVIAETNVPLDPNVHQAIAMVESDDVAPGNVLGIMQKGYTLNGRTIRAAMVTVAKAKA

In general, IC50 refers to the concentration at which inhibition is half-maximal. Read a high IC50 as weaker potency in that assay. With `[N-]=[N+]=Nc1ccc(C(=O)CSC[C@H](NC(=O)CC[C@H](N)C(=O)O)C(=O)NCC(=O)O)cc1`, the IC50 was 1.62 µM [sample A] and inactive [sample B].
